Source: PubChem BioAssay AID1159614 (National Center for Advancing Translational Sciences (NCATS), 2016)
Among all 45,000 compounds or so, about 65 (0.1%) were called active. The call rests on the fitted dose curve; in most records, active means well fitted activation curve with a large enough effect; inconclusive means small, poorly fitted or top-dose-only effect; inactive means no such curve, though single readings can be large or run the other way. The list shows a part of the results.

target: Galactocerebrosidase (Homo sapiens) (UniProt P54803); assay: A Novel Cell-Based Assay to Identify Small Molecules for B -Galactocerebrosidase; details: 145M-Twi-hGALC-G270D cells (Twitcher mouse brain line with human GALC G270D), HMU-beta-Gal fluorescence, 48 h; series mostly up to 57.5 µM; activation: at the top concentration; further: 0% is about no effect; nearly all actives have a fitted effect of over 65% in size
Sequence of UniProt P54803 (P54803 whole entry, looked up): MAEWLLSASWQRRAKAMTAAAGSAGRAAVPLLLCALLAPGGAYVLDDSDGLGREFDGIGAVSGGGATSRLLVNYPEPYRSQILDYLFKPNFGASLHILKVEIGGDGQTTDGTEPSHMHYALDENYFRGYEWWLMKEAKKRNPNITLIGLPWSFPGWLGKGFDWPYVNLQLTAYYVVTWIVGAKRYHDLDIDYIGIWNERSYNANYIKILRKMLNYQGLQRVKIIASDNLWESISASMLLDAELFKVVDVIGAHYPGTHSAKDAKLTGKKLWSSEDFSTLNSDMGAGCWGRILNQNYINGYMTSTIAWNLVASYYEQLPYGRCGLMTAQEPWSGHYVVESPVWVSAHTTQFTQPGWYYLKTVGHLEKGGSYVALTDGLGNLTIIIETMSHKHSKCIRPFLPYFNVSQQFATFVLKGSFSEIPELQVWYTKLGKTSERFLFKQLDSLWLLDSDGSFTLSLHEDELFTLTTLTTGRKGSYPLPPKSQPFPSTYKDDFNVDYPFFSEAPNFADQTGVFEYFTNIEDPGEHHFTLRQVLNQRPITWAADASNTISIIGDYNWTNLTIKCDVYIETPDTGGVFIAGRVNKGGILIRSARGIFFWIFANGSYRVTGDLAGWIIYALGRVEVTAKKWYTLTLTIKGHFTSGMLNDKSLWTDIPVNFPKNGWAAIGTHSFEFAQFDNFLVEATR
Outline: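 Brain-derived Twitcher mouse 145M-Twi cells stably expressing human GALC-G270D or wild-type GALC, treated live, then residual GALC activity read by fluorescence of HMU-b-Gal substrate (0.1 mM final) in citrate-phosphate buffer pH 5.2 with sodium taurocholate. Signal increase indicates enhancement.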

activation, inactive:
COCCNC(=O)CCCn1c(SCC(=O)c2ccc(F)cc2)nc2c(sc3ccccc32)c1=O -2.15%
CCOc1ccc(-c2c(C)nn3c(C)c(C(=O)Nc4cccc(Cl)c4C)cnc23)cc1OCC -19%
COCCN1Cc2cccc(C(=O)Nc3ccc(C(=O)OC)cc3)c2C1=O 0.498%
Cc1cc2cc(CCNS(=O)(=O)c3ccc(Br)cc3)c(=O)[nH]c2cc1C -44.4%
Cn1c2c(c(=O)n(C)c1=O)C(c1cccc(O)c1)CC(=O)N2 (configuration not stated) -9.61%
COc1cccc(NS(=O)(=O)c2ccc3[nH]c4c(c3c2)CCCCCC4)c1 -19.3%
Cc1cc(Br)cc(C)c1NC(=O)c1cnc2ccccn2c1=O -3.41%
COc1ccc(NC(=O)C(NC(=O)Cc2cccs2)c2ccc(OC)cc2)cc1 (configuration not stated) -10.9%
CCc1ccc(CN(C(=O)c2ccc(OC)cc2)C2CCS(=O)(=O)C2)cc1 (configuration not stated) 1.78%
CCOC(=O)c1ccc(NC(=O)CC2Nc3cccc4cccc(c34)NC2=O)cc1 (configuration not stated) -35.4%
Cc1noc(C)c1S(=O)(=O)Nc1ccc(C(=O)Nc2ccc(C(C)C)cc2)cc1 -7.01%
COc1ccc(-c2onc(C)c2C)cc1S(=O)(=O)N1CCc2ccccc21 0.683%
CCC12CN3CC(CC)(CN(C1)C3c1cccc(OC)c1O)C2=O (configuration not stated) 0.893%
COc1cc2c(cc1NC(=O)COc1ccc(Br)c(C)c1)oc1ccccc12 -12.7%
CCn1c(C(=O)NCc2ccc(C)cc2)cc2sc(Cl)cc21 -11.9%
COc1ccc(-c2nc3ccccc3s2)cc1NC(=O)c1ccc(C#N)cc1F 8.45%
Cc1ccc2nc(N(Cc3cccnc3)C(=O)c3ccco3)sc2c1 -16.6%
COc1ccc(-c2c(C)c3ccc(O)c(CN4CCCCC4)c3oc2=O)cc1OC -16%
CCc1ccc(CNC(=O)c2ccc(CS(=O)c3ccc(Br)cc3)o2)cc1 (configuration not stated) -10.8%
CCc1nnc(SCC(=O)Nc2ccc(Cl)cc2F)c2cc3occc3n12 -19.3%
CCOC(=O)Cn1c(=O)n(-c2ccccc2OC)c2nc(-c3ccccc3)nc(C(N)=O)c21 -1.4%
CCc1ccc(-n2c(SCc3nc(-c4cc(OC)ccc4OC)no3)nnc2-c2ccccc2)cc1 -10.5%
CCOC(=O)c1c(NC(=O)CCCOc2ccc(C)cc2)sc2c1CCC(C)C2 (configuration not stated) -23%
Cc1cccc(N2CCN(C(=O)c3cn(C)c4ccc(S(=O)(=O)N(C)C)cc4c3=O)CC2C)c1 (configuration not stated) -13.1%
CCOc1ccc(S(=O)(=O)NCCc2csc3nc(-c4ccc(OC)c(OC)c4)nn23)cc1 -14.4%
CCc1ccc(NC(=O)CC2C(=O)NCCN2C(=O)c2ccccc2OC)cc1 (configuration not stated) -3.42%
Cc1nc(SCc2cc(=O)c3cccc(F)c3[nH]2)n[nH]1 -1.13%
CCOCCc1nn2c(=O)cc(COC(=O)COc3ccc(C)c(C)c3)nc2s1 -4.12%
CC(C)c1ccc(NC(=O)c2ccc3oc(=O)c(S(=O)(=O)c4ccc(F)cc4)cc3c2)cc1 -13%
COc1cn(CC(=O)Nc2c(C)cc(C)cc2C)c(CN2CCCCC2)cc1=O -2.62%
COc1ccc(NC(=O)Cn2ncc3c(C)n(Cc4cccc(Cl)c4)c(C)c3c2=O)cc1 -10.5%
CC(C)c1ccc(NC(=O)CSc2ncnc3c2sc2ccccc23)cc1 -16.2%
COc1ccccc1CNCc1ccc(C(=O)O)s1 -3.43%
Clc1cccc(CSc2nc(NCCc3ccccc3)c3ccccc3n2)c1 -0.748%
COc1ccc(-c2nc3sc(CCNC(=O)Cc4ccc(Cl)cc4)c(C)n3n2)cc1 -39.9%
CCOc1ccc(CCNC(=O)CSc2nc3ccccc3nc2Cc2ccc(C)cc2)cc1OCC 5.34%
CC(C)CCOc1ccc(Cn2c(=O)sc3ccccc32)cc1 -16.3%
COc1ccc(C(=O)Nc2ccc(N3CCN(c4ccccc4)CC3)c(C(=O)O)c2)cc1 -8.62%
COc1c(C)cccc1C(=O)Nc1ccc(Cl)c(-c2nc3cc(C)ccc3o2)c1 7.3%
CCOc1ccc(CCNC(=O)C(CC(C)C)N2Cc3ccccc3C2=O)cc1OCC (configuration not stated) -7.82%
CCOc1ccccc1NC(=O)Nc1ccc2nc(N3CCN(C)CC3)cc(C)c2c1 -10.2%
CC(=O)OC[C@H]1O[C@@H](n2ncc(=O)[nH]c2=O)[C@H](OC(C)=O)[C@@H]1OC(C)=O 5.42%
CCN(CC)c1ccc(NC(=O)CN(C)S(=O)(=O)c2cccc3nsnc23)c(C)c1 -18.5%
CCN(CC)c1ccc(C(=O)NCc2ccc3c(c2)CCN3C(=O)c2cccc(C)c2)cc1 -12.4%
CCCCN(CC)CCCNC(=O)Cn1nc(CC)n2c(cc3sccc32)c1=O -17.8%
CSc1ncc(C(=O)NCc2ccc(F)cc2)c(-c2ccccc2)n1 8.11%
CCOC(=O)c1ccc(NC(=O)CCCn2nc(C)c3sc4ccccc4c3c2=O)cc1 -5.71%
COc1ccc2c(c1)c1c(c(=O)n(CCc3ccccc3)c(=O)n1Cc1cccc(C)c1)n2C 4.64%
COc1ccc(Nc2ncnc3c2cnn3-c2cc(Cl)ccc2C)cc1OC -17.3%
Cc1cccc(-c2nc(SCCCOc3cc(C)c(Cl)c(C)c3)n3[nH]c(=O)cc3n2)c1 -4.54%
CCOc1ccc(OCCOCCn2c(-c3ccc(Cl)cc3)nc3ccccc3c2=O)cc1 -13.5%
O=C(Cc1ccc(-c2ccccc2)cc1)NCCS(=O)(=O)N1CCN(c2cccc(Cl)c2)CC1 -1.5%
CCCc1oc2ccc(NS(=O)(=O)c3ccc(OCC)cc3)cc2c1C(=O)OCC -17.2%
Cc1ccc(C(=O)OC2=C(C(=O)c3ccccc3)N(C)S(=O)(=O)c3ccccc32)cc1 -9.48%
COC(=O)CC(=O)CSc1nc2cc(C(=O)NC(C)C)ccc2c(=O)n1CCc1ccccc1 -10.3%
Cc1oc2ncn(CC(C)C)c(=O)c2c1C(=O)NCc1cccc(Cl)c1 -13.2%
CCOc1ccc(Nc2sc(C(=O)c3ccc(F)cc3)c(N)c2S(=O)(=O)c2ccc(C)cc2)cc1 -21.3%
CC1c2ccccc2CN1NC(=O)c1ccc(Cl)c(S(N)(=O)=O)c1 (configuration not stated) -15.4%
O=C(CN1C(=O)COc2ccc(S(=O)(=O)N3CCOCC3)cc21)NCc1ccc(Cl)cc1 2.07%
CCN(C(=O)CSc1nnc(-c2cc3occc3n2C)n1-c1ccccc1C)c1ccccc1 -4.55%
CS(=O)(=O)c1ncc(Cl)c(C(=O)N2CCN(c3cccc(Cl)c3)CC2)n1 -11.9%
COc1ccc(Cl)cc1NC(=O)c1ccc(CN2C(=O)CCn3nc(C)cc32)cc1 -7.68%
COc1cc(Cl)c(C)cc1NC(=O)CNC(=O)Cn1ccc2ccccc2c1=O -14.3%
CCc1ccc(-c2nc3c(c(SCc4ccccc4)n2)Cc2c(CO)cnc(C)c2O3)cc1 -1%
CC(C)Oc1ccc(CNC(=O)c2cc3cccc4c3n2CC(C)S4)cc1 (configuration not stated) -16.1%
Cc1ccc(Cn2c(C(=O)Nc3ccc(Cl)cc3)cc3sccc32)cc1 -17.8%
Cc1ccc(-c2onc(C)c2C)cc1S(=O)(=O)N1CCC(C)CC1 6.15%
Cc1c(C(=O)NCc2ccccc2Cl)sc2nc3n(c(=O)c12)CCCC3 -16.2%
CCOc1ccccc1CNC(=O)C(CC)n1nc(C)c2c(C)n(-c3ccccc3)nc2c1=O (configuration not stated) -23.2%
CCOC(=O)N1CCC(NC(=O)c2ccc3c(c2)N(Cc2ccccc2)C(=O)c2ccccc2S3(=O)=O)CC1 0.949%
COc1ccc(Br)c2c1-c1nc(NC(=O)c3ccc(F)cc3)sc1C2 4.65%
CC(C)Cn1cc(NC(=O)NCc2ccc(Cl)cc2)c2ccccc2c1=O -24.8%
CCC(=O)N1c2ccccc2CC1C(=O)NCCCN1CCN(c2cccc(Cl)c2)CC1 (configuration not stated) -15%
COc1ccc(C2c3c(n(C)c4ccccc34)C(=O)N2CC(=O)Nc2c(C)cc(C)cc2C)cc1 (configuration not stated) -1.22%
Cc1ccc(C)c(NC(=O)CSc2nc(=O)n(CCN3CCOCC3)c3c2CCC3)c1 -15.4%
COc1cc2c(cc1OC)C(COc1ccc3c(C)cc(=O)oc3c1)N(C(=O)c1ccc(C)cc1)CC2 (configuration not stated) -19.5%
COc1ccc(C(=O)CN2CCN(S(=O)(=O)c3ccc(F)cc3)CC2)cc1 -0.613%
COCCCNc1nc2c(c(=O)n(Cc3ccccc3)c(=O)n2C)n1C -4.54%
Cc1ccc2c(c1)C(=O)OC(C(=O)Nc1ccc(C(=O)O)cc1)C2 (configuration not stated) 6.41%
O=C(Nc1ccc(Cl)cc1)c1ccc2oc(=O)n(Cc3ccccc3)c2c1 -11.2%
CCOC(=O)c1nnn(CC(=O)NC(=O)Nc2ccccc2F)c1C(=O)OCC -12.9%
CC1CCN(C(=O)CCS(=O)(=O)c2cc3c(cc2Cl)NC(=O)CO3)CC1 -2.22%
O=C(c1cc(-c2ccc(Br)cc2)n[nH]1)N1CCN(S(=O)(=O)c2ccc(Br)s2)CC1 3.2%
CCCCSc1nnc2[nH]c(=O)cc(C)n12 -16.7%
CC(=O)N1CCC2(CC1)OC(=O)C(C)=C2C(=O)NCc1ccccc1Cl -7.92%
COc1ccc(-c2cn3c(n2)sc2cc(C(=O)Nc4ccc(F)cc4)ccc23)cc1 0.197%
Cc1ccc(Cl)cc1NC(=O)c1csnn1 -13%
Cc1cc(NC(=O)c2ccc(F)cc2)ccc1-c1cc2ccccc2oc1=O -16.6%
CC(=O)OC1=C(C(C)=O)N(Cc2ccccc2)S(=O)(=O)c2ccccc21 -7.78%
CCOC(=O)c1ccc(N2C(=O)c3[nH]nc(-c4ccc(C)cc4)c3C2c2ccc(O)cc2)cc1 (configuration not stated) -3.33%
Cc1ccccc1CSc1ncc(Cl)c(C(=O)NCc2ccccc2)n1 1.99%
CCC(=O)N1CCc2cc(Br)cc(S(=O)(=O)CCC(=O)Nc3ccc(CC)cc3)c21 -5.26%
CCN(CC)S(=O)(=O)c1ccc(NC(=O)c2nn(C)c3c2CSc2ccccc2-3)cc1 -8.81%
CCOc1ccc(Nc2nc(N)c(C(=O)c3ccccc3Cl)s2)cc1 -18.2%
Cc1cccc(CC(=O)NC2CC(=O)N(c3ccc4c(c3)OCCO4)C2)c1 (configuration not stated) -15.9%
Fc1ccc(Nc2nc(SCc3cccc(F)c3)nc3ccccc23)cc1 -8.75%
Cc1ccccc1CNC(=O)Cn1c(C)c2cnn(-c3ccccc3)c(=O)c2c1C 1.51%
